{
  "source": "paper PMC6919601",
  "about": "“Identification of Plasmodium dipeptidyl aminopeptidase allosteric inhibitors by high throughput screening” (PLoS ONE, 2019)",
  "note": "In all, about 110,000 compounds went through this assay and about 230 (0.21%) showed an effect of 50% or more. This is one part of the list.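 Note: 30 min substrate incubation versus DMSO and 10 µM JCP410 controls.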",
  "data": [
    {"target": "DPAP1 (Plasmodium falciparum, UniProt Q8IIJ9)", "sequence (Q8IIJ9 whole entry, looked up)": "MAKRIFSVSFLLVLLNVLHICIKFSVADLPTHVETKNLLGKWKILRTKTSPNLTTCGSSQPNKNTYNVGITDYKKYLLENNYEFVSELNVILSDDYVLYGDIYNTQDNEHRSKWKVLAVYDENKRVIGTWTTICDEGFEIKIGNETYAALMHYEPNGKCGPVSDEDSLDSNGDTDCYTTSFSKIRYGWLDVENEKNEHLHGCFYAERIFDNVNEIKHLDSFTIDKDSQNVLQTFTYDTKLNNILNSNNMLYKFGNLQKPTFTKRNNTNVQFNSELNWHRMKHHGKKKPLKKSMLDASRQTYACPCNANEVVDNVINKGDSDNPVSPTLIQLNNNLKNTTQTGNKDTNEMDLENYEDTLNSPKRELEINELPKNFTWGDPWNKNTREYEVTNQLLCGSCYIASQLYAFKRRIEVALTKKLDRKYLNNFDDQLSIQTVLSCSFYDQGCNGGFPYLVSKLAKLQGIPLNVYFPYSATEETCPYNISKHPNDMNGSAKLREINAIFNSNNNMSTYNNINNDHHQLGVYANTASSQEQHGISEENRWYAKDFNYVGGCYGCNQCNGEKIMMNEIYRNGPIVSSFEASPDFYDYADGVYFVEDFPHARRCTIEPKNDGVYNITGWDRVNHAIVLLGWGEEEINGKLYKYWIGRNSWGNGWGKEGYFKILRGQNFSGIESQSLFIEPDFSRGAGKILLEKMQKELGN", "experiment": "primary screen, percent inhibition; read by cleavage of a fluorogenic dipeptide substrate; higher = more effect of the substance", "parameters": "species or system P. falciparum D10 trophozoite lysates; single well", "units": {"% Inhibition @ 10 uM": "%"}, "values": [
      {"smiles": "Cc1cc(C)nc(SCC(=O)Nc2ccccc2Cl)n1", "% Inhibition @ 10 uM": 4.83},
      {"smiles": "O=C(NCc1ccc(Cl)cc1)c1ccco1", "% Inhibition @ 10 uM": -7.3},
      {"smiles": "O=S(=O)(CCc1nc2ccccc2s1)c1ccc(Br)cc1", "% Inhibition @ 10 uM": -1.79},
      {"smiles": "NC(=S)Cc1c[nH]c2ccccc12", "% Inhibition @ 10 uM": -5.51},
      {"smiles": "Cc1ccc(/C=c2/sc3nc4cc(C)c(C)cc4n3c2=O)o1", "% Inhibition @ 10 uM": 10.9},
      {"smiles": "O=C(c1ccc(CS(=O)(=O)c2c(Cl)cccc2Cl)o1)N1CCN(c2ncccn2)CC1", "% Inhibition @ 10 uM": 0.718},
      {"smiles": "CN(c1ccc(C(=O)NCc2ccccn2)cc1)S(C)(=O)=O", "% Inhibition @ 10 uM": -3.33},
      {"smiles": "COc1ccc2c(CNCc3cc(OC)c(OC)c(OC)c3)c(C(=O)O)n(C)c2c1", "% Inhibition @ 10 uM": 3.9},
      {"smiles": "Cc1cc(C)n(Cc2ccc(C(=O)Nc3ccc(C)c(Cl)c3)o2)n1", "% Inhibition @ 10 uM": 5.79},
      {"smiles": "CC(O)C#CC1(C)CCCC(C)(C)O1", "note": "(stereo not drawn)", "% Inhibition @ 10 uM": -0.0369},
      {"smiles": "O=C1OC(c2ccccc2F)=N/C1=C\\c1cccc(Br)c1", "% Inhibition @ 10 uM": -3.71},
      {"smiles": "C#CCOc1cc(Br)c(/C=C2/NC(=O)NC2=O)cc1OCC", "% Inhibition @ 10 uM": 0.487},
      {"smiles": "COc1cccc(CNC(=O)CCNS(=O)(=O)c2cccs2)c1", "% Inhibition @ 10 uM": 1.83},
      {"smiles": "O=c1c2c(-c3ccc([N+](=O)[O-])cc3)csc2nc2n1CCC2", "% Inhibition @ 10 uM": 5.77},
      {"smiles": "O=c1oc2ccc(Br)cc2cc1-c1nc(-c2ccccc2F)no1", "% Inhibition @ 10 uM": 0.0147},
      {"smiles": "Cc1cc2nc(NC3=NCN(CCc4ccccc4)CN3)nc(C)c2cc1C", "% Inhibition @ 10 uM": -2.75},
      {"smiles": "CC(C)(C)NC(=O)c1c(F)cccc1F", "% Inhibition @ 10 uM": 1.13},
      {"smiles": "COc1ccc2nc(N3CCCC(C(=O)NCCC4=CCCCC4)C3)sc2c1", "note": "(stereo not drawn)", "% Inhibition @ 10 uM": -4.65},
      {"smiles": "CSc1cnn(-c2ccccc2)c(=O)c1O", "% Inhibition @ 10 uM": 13.9},
      {"smiles": "COC(=O)c1cc2oc3ccccc3c2n1Cc1nc(-c2ccccc2)oc1C", "% Inhibition @ 10 uM": 1.72},
      {"smiles": "Cc1ccc(/C=C2/C(=N)N3C(=NC2=O)SN=C3S(C)(=O)=O)o1", "% Inhibition @ 10 uM": 0.163},
      {"smiles": "O=C(NCc1cccs1)c1ccc2c(c1)ncn2C1CCCC1", "% Inhibition @ 10 uM": -3.12},
      {"smiles": "CN(C)CCCC1(O)c2ccccc2CSc2sccc21", "note": "(stereo not drawn)", "% Inhibition @ 10 uM": 0.843},
      {"smiles": "CCCCC(C(=O)N1CCCCC1)N1C(=O)c2ccccc2C1=O", "note": "(stereo not drawn)", "% Inhibition @ 10 uM": 5.59},
      {"smiles": "O=C(NCCCO)/C(=C\\c1ccco1)NC(=O)c1ccccc1Cl", "% Inhibition @ 10 uM": 11.5},
      {"smiles": "CNc1ccc(Cl)cc1C(O)c1ccccc1", "note": "(stereo not drawn)", "% Inhibition @ 10 uM": -3.27},
      {"smiles": "O=C(Nc1cccc([N+](=O)[O-])c1)c1cccc(S(=O)(=O)N2CCOCC2)c1", "% Inhibition @ 10 uM": -0.0217},
      {"smiles": "O=C(NCc1ccco1)c1sc2cc(F)ccc2c1Cl", "% Inhibition @ 10 uM": -0.294},
      {"smiles": "CCc1ccc(CN2C(=O)c3ccccc3C2C(=O)NCC2CCCO2)cc1", "note": "(stereo not drawn)", "% Inhibition @ 10 uM": 2.35},
      {"smiles": "CCCSc1ncc(Cl)c(C(=O)N(Cc2ccc(C(C)(C)C)cc2)C2CCS(=O)(=O)C2)n1", "note": "(stereo not drawn)", "% Inhibition @ 10 uM": -0.45},
      {"smiles": "COc1ccccc1-c1cc(C(=O)O)c2ccccc2n1", "% Inhibition @ 10 uM": -4.91},
      {"smiles": "COc1cc2c(cc1OC)C(c1cccc([N+](=O)[O-])c1)NCC2", "note": "(stereo not drawn)", "% Inhibition @ 10 uM": 1.66},
      {"smiles": "O=C(/C=C/c1ccc(Cl)cc1)Nc1ccccc1O", "% Inhibition @ 10 uM": -5.84},
      {"smiles": "O=C(C1=C(O)C(=O)N(c2ccccn2)C1c1cccnc1)c1ccc(Br)cc1", "note": "(stereo not drawn)", "% Inhibition @ 10 uM": -1.95},
      {"smiles": "COc1ccc(C2=NN(c3nc(-c4ccc(S(=O)(=O)N5CCCC5)cc4)cs3)C(c3ccc(OC)cc3)C2)cc1", "note": "(stereo not drawn)", "% Inhibition @ 10 uM": -4.31},
      {"smiles": "COc1cccc(C2=N/C(=C\\c3ccc(C(C)C)cc3)C(=O)O2)c1", "% Inhibition @ 10 uM": -2.05},
      {"smiles": "COc1ccc(NC(C#N)c2ccc(OC)cc2)cc1", "note": "(stereo not drawn)", "% Inhibition @ 10 uM": -5.07},
      {"smiles": "CCCCNc1ccc2cccc(O)c2n1", "% Inhibition @ 10 uM": 1.9},
      {"smiles": "COc1ccc(NC(=O)CC2Sc3ccccc3NC2=O)cc1", "note": "(stereo not drawn)", "% Inhibition @ 10 uM": 18.6},
      {"smiles": "O=C(NC1CCCC1)C1CCN(c2nc3ccc(Br)cc3s2)CC1", "% Inhibition @ 10 uM": -11},
      {"smiles": "COC(=O)C1=CN(Cc2ccc(OC)cc2)C=C(C(=O)OC)C1c1ccsc1", "% Inhibition @ 10 uM": 0.611},
      {"smiles": "O=C(O)CN(CC(=O)O)C1CCS(=O)(=O)C1", "note": "(stereo not drawn)", "% Inhibition @ 10 uM": 9.29},
      {"smiles": "O=C(O)CSc1nncn1-c1ccccc1", "% Inhibition @ 10 uM": 0.00784},
      {"smiles": "CCOc1ccc2c(=O)c(Oc3ccc(F)cc3)c(C)oc2c1C", "% Inhibition @ 10 uM": -2.37},
      {"smiles": "CCOC(=O)c1c(NC(=O)N(C(C)C)C2CCN(C(C)=O)CC2)sc2c1CCCC2", "% Inhibition @ 10 uM": 2.27},
      {"smiles": "Cc1ccc2cc3c(N)c(C(=O)Nc4ccc(F)cc4)sc3nc2c1", "% Inhibition @ 10 uM": 3.99},
      {"smiles": "CCOc1ccc(CCNC(=O)C2CCCN(c3nn4c(=O)cc(C)nc4s3)C2)cc1OCC", "note": "(stereo not drawn)", "% Inhibition @ 10 uM": -2},
      {"smiles": "COc1ccc(S(=O)(=O)Cc2ccc(C(=O)NC3CCC(C)CC3)o2)cc1", "note": "(stereo not drawn)", "% Inhibition @ 10 uM": -1.28},
      {"smiles": "CC1(C)CC(=O)c2sc(NC(=O)/C=C/c3ccccc3)nc2C1", "% Inhibition @ 10 uM": 1.97},
      {"smiles": "C=CCOc1ccc(C(=O)n2cc(Br)cn2)cc1", "% Inhibition @ 10 uM": 2.1},
      {"smiles": "Cn1c(=O)n(Cc2ccc(Cl)cc2)c2ccccc21", "% Inhibition @ 10 uM": -2.37},
      {"smiles": "Oc1c2c(nc3nc(-c4ccccc4)nn13)CCC2", "% Inhibition @ 10 uM": -2.4},
      {"smiles": "CC1(C)CC(=O)C2=C(C1)N(c1nc[nH]n1)C(N)=C(C#N)C2c1cccc(Br)c1", "note": "(stereo not drawn)", "% Inhibition @ 10 uM": 1.03},
      {"smiles": "Cc1ccc(C(=O)C2CCCCC2)cc1", "% Inhibition @ 10 uM": 1.13},
      {"smiles": "CCC(C)Cn1c(C(O)c2ccccc2)nc2ccccc21", "note": "(stereo not drawn)", "% Inhibition @ 10 uM": -0.0735},
      {"smiles": "CCOc1ccc(CCNC(=O)C(C)n2nc(C)c3sc4ccccc4c3c2=O)cc1", "note": "(stereo not drawn)", "% Inhibition @ 10 uM": -5.95},
      {"smiles": "N#C/C(=C\\c1c(Oc2ccccc2)nc2ccccn2c1=O)S(=O)(=O)c1ccc(Cl)cc1", "% Inhibition @ 10 uM": -0.828},
      {"smiles": "Cc1ccc(CCN2CC(C(=O)NCCc3ccccc3)CC2=O)cc1", "note": "(stereo not drawn)", "% Inhibition @ 10 uM": -0.0542},
      {"smiles": "O=C(NCc1ccco1)C1COc2ccccc2O1", "note": "(stereo not drawn)", "% Inhibition @ 10 uM": -9.26},
      {"smiles": "COc1ccc(C(=O)Nc2ccc(OCc3ccccc3)cc2)cc1OC", "% Inhibition @ 10 uM": -0.992},
      {"smiles": "CCN(CC)CCN(C)C1C2CC3CC(C2)CC1C3", "note": "(stereo not drawn)", "% Inhibition @ 10 uM": 1.29},
      {"smiles": "CCCN1CCN(C(=O)Cn2nc(C)c3c(C)n(-c4ccccc4)nc3c2=O)CC1", "% Inhibition @ 10 uM": -0.307},
      {"smiles": "NC(=O)CSc1nnc(COc2cccc3cccnc23)n1-c1ccc(Cl)cc1", "% Inhibition @ 10 uM": 1.72},
      {"smiles": "O=C(NCc1ccc(CNC(=O)c2cccs2)cc1)c1cccs1", "% Inhibition @ 10 uM": -0.95},
      {"smiles": "Cc1ccc(C(=O)O)cc1NC(=O)C(C)Oc1ccc(C(C)(C)C)cc1", "note": "(stereo not drawn)", "% Inhibition @ 10 uM": -0.63},
      {"smiles": "COc1cc(C2CC(=O)NC3=C2C(=O)CCC3)cc(OC)c1OC", "note": "(stereo not drawn)", "% Inhibition @ 10 uM": 8.4}
    ]}
  ]
}
